Assay results as given in ChEMBL document CHEMBL4888484, “Replenishing the malaria drug discovery pipeline: Screening and hit evaluation of the MMV Hit Generation Library 1 (HGL1) against asexual blood stage Plasmodium falciparum ,using a nano luciferase reporter read-out” (2022).
Out of some 150,000 compounds screened, about 540 (0.36%) showed an effect of 50% or more. This is one part of the list.

tested on: Plasmodium falciparum; test: Primary screen in NF54 nanoGlo assay, in single point, at 2uM, 72h; a lower Z score goes with more inhibition; assay type: functional, Erythrocyte; settings: timepoint 72 hour

SMILES	% Inhibition [%]	Z score
COc1ccc(NC(=O)Cn2cc(-c3noc(-c4cccnc4)n3)nc2C)cc1	27	-3.61
CC(C)C(=O)N1CC(C)(C)c2cc(S(=O)(=O)N3CCc4ccccc4C3)ccc21	-2	0.26
CCCNC(=O)C1CCN(C(=O)[C@]2(C)CCOc3ccccc32)CC1	-11	1.88
Cc1nc([C@@H](C)Cn2nc(C(F)(F)F)cc2C2CC2)sc1C(=O)O	-31	3.61
CCc1nnc(N(C)C[C@H]2COc3ccccc3O2)nc1CC	-18	1.81
O=C(Nc1cc(Cl)c(OCC(F)(F)F)c(Cl)c1)c1ncncc1Cl	29	-3.88
COc1ccccc1C(=O)NCn1cncn1	-9	1.07
O=C(Cn1ncnn1)Nc1c(F)c(F)c(F)c(F)c1F	1	-0.17
Cc1ccc(NC2CCN(CCN3CCCCC3)CC2)cc1	1	-0.18
NC(=O)CCC1NC2(C(=O)Nc3ccc(Cl)cc32)C2C(=O)N(CC3CCCO3)C(=O)C12 (stereo unspecified)	-3	0.44
CCOc1ccccc1NC(=O)CC1CCN(S(=O)(=O)c2ccc3c(c2)CCN3C(C)=O)CC1	-15	1.37
Cc1ccc(O[C@H]2CCCN(C(=O)NCc3cccs3)C2)nn1	-6	0.93
O=c1ccc(-c2noc(Cc3cccc(Cl)c3)n2)c[nH]1	2	-0.31
Cc1cc(NC(=O)NCc2nc(C(F)(F)F)cs2)c[nH]c1=O	-9	1.11
C[C@@H](O)CNc1cccc(F)c1C(N)=O	-4	0.74
O=C(c1ccccn1)N(CCN1CCCC1)C1CCOCC1	-2	0.35
O=C(O)[C@H]1CCCCN1C(=O)c1ccc(Cl)cc1F	-10	1.35
CN(C)C(=O)c1ccc(C(=O)Nc2ccc(C(N)=O)c(N3CCCCC3)c2)cc1	-3	0.56
COc1ccc(N(CCc2ccccc2)C(=O)c2cnns2)cc1	-7	1.09
CC(C)C[C@@H](NC(=O)OC(C)(C)C)C(=O)N[C@H](CC(C)C)C(=O)N[C@@H](C(=O)OCc1ccccc1)C(C)C	-18	2.31
CN1CCN(CCOc2ccccc2)C[C@@]12CCC(=O)N(CC1CC1)CC2	-5	0.68
CC[C@H]1c2cccn2CCN1C(=O)CCc1cscn1	35	-5.02

SMILES	% Inhibition [%]	Z score
CC1CC(C(=O)N2CCCC(Cc3ccccc3)C2)CCO1 (stereo unspecified)	-24	2.55
CCCc1cnc(NCC[C@H]2CCCCN2C2CCCC2)nc1	0	-0.01
COc1cccc(Nc2cc(C)nc3ccnn23)c1	5	-0.5
CCOC(CN1CCOCC12CCCC2)OCC	2	-0.25
CCCCCNC(=O)[C@H]1N(C(=O)OC(C)(C)C)CC12CCOCC2	-17	2.76
CC(C)C(=O)Nc1ccc(NCc2ccncc2)cc1	-16	3.14
CC(C)C[C@]1(c2nc(-c3ccccc3F)no2)CCNC1=O	5	-0.73
Cc1ccc2c(c1)N(S(C)(=O)=O)C[C@@H](C(=O)Nc1ccccc1C(N)=O)O2	-17	2.13
Cc1nc([C@H](C)NC(=O)C2(C#N)CCOCC2)cs1	-1	0.28
CN(CC(=O)NCC1CCCCC1)c1ccc(O)cc1	-3	0.43
CC1CC(NC(=O)C2(CF)CCC2)CCO1 (stereo unspecified)	1	-0.12
CCc1ccc(NC(=O)c2ccc(N3CC(C)CC(C)C3)c(NS(=O)(=O)c3ccc(Cl)cc3)c2)cc1 (stereo unspecified)	-7	0.86
c1ccc(-c2noc([C@@H]3CCCN3C3CCCC3)n2)nc1	7	-0.87
Cc1cccc(NS(=O)(=O)c2c(C)sc(C)c2-c2ccno2)c1	1	-0.11
O=S1(=O)C[C@@H]2[C@H](C1)N(Cc1ccccc1)CCN2CC1CC1	-10	1.14
Cc1ccc2[nH]c3c(c2c1)CN(C(=O)OC(C)(C)C)CCC3	1	-0.11
CC1CCC(NC(=O)CNC(=O)C2CCCCC2)CC1 (stereo unspecified)	-5	0.82
CCn1nc(C(=O)N2CCCCCC2)c2c1CC[C@H](NCc1ccc(Cl)s1)C2	-11	2.12
C[C@H]1CN(Cc2cc(-c3cccs3)on2)CCO1	1	-0.14
CCC[C@@H](C(=O)NCC(=O)N(C)C)N1CCN(C(=O)OC(C)(C)C)CC1	-2	0.22
Cc1c(C(=O)NC2CCCC(C(N)=O)C2)cccc1-c1ccccn1 (stereo unspecified)	-16	2.04
